In paper PMC6238599:
No constants are given. Whether binding was seen depends on the method and setting. For part of these data: Binding seen in cells or lysates may run through a third protein. Some entries that bind do so weakly or less than the wild type.

Amino acid sequences for entries named in this document (tags omitted). A change or cut given only in a name is not applied to a line headed by its entry. Residues count along the entry.
UniProt Q9H7E2: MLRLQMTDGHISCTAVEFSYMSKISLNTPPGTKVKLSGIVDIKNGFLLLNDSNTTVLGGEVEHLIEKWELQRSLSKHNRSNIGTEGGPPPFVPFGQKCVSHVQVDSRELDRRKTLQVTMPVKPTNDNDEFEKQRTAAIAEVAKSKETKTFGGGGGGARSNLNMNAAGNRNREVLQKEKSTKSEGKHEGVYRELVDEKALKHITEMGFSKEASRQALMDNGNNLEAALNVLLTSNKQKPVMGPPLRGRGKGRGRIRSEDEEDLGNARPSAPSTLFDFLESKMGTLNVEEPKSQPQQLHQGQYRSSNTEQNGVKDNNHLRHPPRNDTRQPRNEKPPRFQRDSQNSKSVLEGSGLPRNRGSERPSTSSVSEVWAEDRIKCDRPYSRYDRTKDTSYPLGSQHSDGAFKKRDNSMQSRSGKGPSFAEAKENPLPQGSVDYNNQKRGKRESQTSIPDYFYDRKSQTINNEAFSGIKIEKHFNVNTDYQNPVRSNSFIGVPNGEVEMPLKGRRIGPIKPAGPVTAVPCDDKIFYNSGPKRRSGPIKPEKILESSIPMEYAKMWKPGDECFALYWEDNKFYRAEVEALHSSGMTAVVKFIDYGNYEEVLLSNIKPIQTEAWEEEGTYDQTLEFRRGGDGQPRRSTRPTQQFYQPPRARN
UniProt Q93074: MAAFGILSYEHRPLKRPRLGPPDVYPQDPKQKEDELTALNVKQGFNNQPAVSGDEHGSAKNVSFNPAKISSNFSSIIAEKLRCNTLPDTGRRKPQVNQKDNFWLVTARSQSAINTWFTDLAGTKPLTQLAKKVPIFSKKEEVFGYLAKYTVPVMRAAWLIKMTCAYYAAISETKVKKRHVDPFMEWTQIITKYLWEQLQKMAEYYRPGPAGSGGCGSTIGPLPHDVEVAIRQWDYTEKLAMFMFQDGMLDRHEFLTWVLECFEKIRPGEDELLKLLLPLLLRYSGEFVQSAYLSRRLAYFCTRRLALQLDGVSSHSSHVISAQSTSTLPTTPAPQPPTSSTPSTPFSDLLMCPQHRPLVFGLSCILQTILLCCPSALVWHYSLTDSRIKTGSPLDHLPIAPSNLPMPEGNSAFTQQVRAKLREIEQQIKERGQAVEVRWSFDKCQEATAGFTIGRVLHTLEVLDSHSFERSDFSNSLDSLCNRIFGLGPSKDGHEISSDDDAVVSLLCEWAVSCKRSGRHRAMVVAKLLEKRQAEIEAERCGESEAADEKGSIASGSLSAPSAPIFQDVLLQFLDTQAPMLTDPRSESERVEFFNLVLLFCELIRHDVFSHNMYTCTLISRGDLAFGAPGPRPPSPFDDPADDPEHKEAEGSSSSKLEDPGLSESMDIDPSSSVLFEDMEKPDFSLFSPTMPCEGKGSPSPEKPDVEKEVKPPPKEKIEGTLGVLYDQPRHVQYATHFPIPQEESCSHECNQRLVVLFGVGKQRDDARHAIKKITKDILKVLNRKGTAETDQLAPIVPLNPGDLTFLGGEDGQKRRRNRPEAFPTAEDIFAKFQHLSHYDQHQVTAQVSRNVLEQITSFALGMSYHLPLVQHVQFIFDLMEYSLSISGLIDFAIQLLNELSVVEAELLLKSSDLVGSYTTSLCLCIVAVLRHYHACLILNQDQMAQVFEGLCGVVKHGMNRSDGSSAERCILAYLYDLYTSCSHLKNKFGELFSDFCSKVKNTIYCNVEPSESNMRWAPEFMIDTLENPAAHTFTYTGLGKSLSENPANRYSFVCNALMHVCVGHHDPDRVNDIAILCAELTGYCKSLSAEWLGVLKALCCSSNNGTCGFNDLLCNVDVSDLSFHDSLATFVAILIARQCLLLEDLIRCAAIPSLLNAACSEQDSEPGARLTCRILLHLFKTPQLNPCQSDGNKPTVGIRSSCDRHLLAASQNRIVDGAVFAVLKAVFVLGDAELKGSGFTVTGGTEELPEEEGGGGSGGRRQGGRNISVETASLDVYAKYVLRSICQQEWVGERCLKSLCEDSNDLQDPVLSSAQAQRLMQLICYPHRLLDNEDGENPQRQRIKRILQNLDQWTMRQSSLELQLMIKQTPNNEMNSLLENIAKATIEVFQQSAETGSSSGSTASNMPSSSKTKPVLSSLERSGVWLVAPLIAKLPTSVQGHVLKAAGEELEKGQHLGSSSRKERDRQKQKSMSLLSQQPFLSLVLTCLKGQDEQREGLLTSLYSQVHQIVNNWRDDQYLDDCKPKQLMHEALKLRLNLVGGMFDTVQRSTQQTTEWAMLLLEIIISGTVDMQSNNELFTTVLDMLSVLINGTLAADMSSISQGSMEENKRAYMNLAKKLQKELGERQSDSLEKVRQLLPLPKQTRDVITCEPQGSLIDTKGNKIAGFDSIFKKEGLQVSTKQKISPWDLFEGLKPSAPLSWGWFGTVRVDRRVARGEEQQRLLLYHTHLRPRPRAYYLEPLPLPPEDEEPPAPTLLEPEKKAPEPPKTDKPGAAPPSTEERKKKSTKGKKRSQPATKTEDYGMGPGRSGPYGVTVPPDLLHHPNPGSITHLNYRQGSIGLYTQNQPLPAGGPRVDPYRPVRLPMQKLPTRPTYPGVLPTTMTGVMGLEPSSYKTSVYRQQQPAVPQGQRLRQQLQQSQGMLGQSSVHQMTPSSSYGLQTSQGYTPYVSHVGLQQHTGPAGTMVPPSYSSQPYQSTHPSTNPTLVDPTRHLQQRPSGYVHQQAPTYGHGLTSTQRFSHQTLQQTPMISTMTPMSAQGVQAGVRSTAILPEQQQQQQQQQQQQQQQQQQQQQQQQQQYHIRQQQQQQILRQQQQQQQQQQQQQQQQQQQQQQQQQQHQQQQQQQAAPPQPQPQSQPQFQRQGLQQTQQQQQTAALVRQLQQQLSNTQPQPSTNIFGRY
UniProt Q16637, residues 91-151: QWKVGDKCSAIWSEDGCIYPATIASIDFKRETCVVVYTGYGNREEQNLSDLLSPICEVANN

What was measured:
[1] = target: TDRD3 (endogenous) (human (endogenous in MCF-7 and HEK293T)) (UniProt Q9H7E2); assay: co-IP; HEK293T cells transiently transfected with FLAG-MED12 WT or mutants; total cell lysates, IP of endogenous TDRD3 with anti-TDRD3, Western blot with anti-FLAG
[2] = target: T1, Biotinylated MED12 peptide, residues 1,891-1,907, asymmetrically dimethylated at Arg1899 (human) (UniProt Q93074); assay: pull-down; biotinylated MED12 peptides (20 ug) immobilised on streptavidin agarose beads; 4 ug GST-Tudor protein in mild lysis buffer (50 mM Tris-HCl pH 7.5, 150 mM NaCl, 0.1% Nonidet P-40, 5 mM EDTA, 5 mM EGTA, 15 mM MgCl2), 4°C, 2 h; Western blot with anti-GST; both purified
T1 sequence (peptide, asymmetrically dimethylated Arg1899; biotin): SSYKTSVYRQQQPAVPQ

[3] = target: TDRD3 (endogenous) (human (endogenous in MCF-7 and HEK293T)) (UniProt Q9H7E2); assay: co-IP; nuclear extracts of untreated MCF-7-Tet-on-shCARM1 cells (150 mM NaCl); IP with anti-TDRD3, Western blot with anti-MED12
[4] = target: TDRD3 (endogenous) (human (endogenous in MCF-7 and HEK293T)) (UniProt Q9H7E2); assay: condition: only cells with CARM1 knocked down (doxycycline, 1 ug/ml); co-IP; nuclear extracts of MCF-7-Tet-on-shCARM1 cells treated with doxycycline (1 ug/ml) to knock down CARM1; IP with anti-TDRD3, Western blot with anti-MED12

Substance | binding [1] | binding [2] | also measured
FLAG-MED12 WT (full-length) (from UniProt Q93074-1 1-2177) | binds |  | 
FLAG-MED12-R1862K (from UniProt Q93074-1 1-2177) | binds |  | 
GST-Tudor (SMN) (from UniProt Q16637 91-151) (domain or fragment) |  | binds weakly | 
GST-Tudor (TDRD3) (from UniProt Q9H7E2 555-615) (domain or fragment) |  | binds | 
MED12 (endogenous, human cells) (from UniProt Q93074-1 1-2177) |  |  | binding [3]: binds; binding [4]: no binding
